For 44 compounds, Ki results are on record in US7423058B2, “Inhibitors of hepatitis C virus NS3 protease” (Schering Corporation, priority 2004, dated 2008).

What is called Ki is the equilibrium dissociation constant of an inhibitor or competing ligand from its target.

Molecules are shown by their SMILES.

The target of the assay is Recombinant heterodimeric HCV NS3/NS4A protease (strain 1a) (Hepatitis C virus genotype 1a, UniProt P27958). Put plainly: Spectrophotometric assay for HCV protease inhibitory activity (chromogenic ester substrates). The assay is classed as biochemical. Particulars: Table 3, Esters; read-out: Ki* Range.
In the case of `CC(C)[C@H](NC(=O)N[C@H](C(=O)N1C[C@H]2[C@@H]([C@H]1C(=O)NC(CC1CC1)C(=O)C(N)=O)C2(C)C)C(C)(C)C)C(=O)OCc1ccc(F)cc1` (some centres unmarked) [compound 4371], the Ki is less than 75 nM.

Regarding `CCC(CC)[C@H](NC(=O)N[C@H](C(=O)N1C[C@H]2[C@@H]([C@H]1C(=O)NC(CC1CC1)C(=O)C(N)=O)C2(C)C)C(C)(C)C)C(=O)OCC1CC1` (some centres unmarked) [compound 4372], the Ki was less than 75 nM.

`CC(C)(C)COC(=O)[C@H](NC(=O)N[C@H](C(=O)N1C[C@H]2[C@@H]([C@H]1C(=O)NC(CC1CCC1)C(=O)C(N)=O)C2(C)C)C(C)(C)C)C(C)(C)C` (some centres unmarked) [compound 4373]: the inhibition constant Ki is less than 75 nM.

Regarding `CC(C)(C)OC(=O)[C@@H](NC(=O)N[C@H](C(=O)N1C[C@H]2[C@@H]([C@H]1C(=O)NC(CC1CCC1)C(=O)C(N)=O)C2(C)C)C1Cc2ccccc2C1)C(C)(C)C` (some centres unmarked) [compound 4374], the Ki was less than 75 nM.

In the case of `CC(C)OC(=O)[C@@H](NC(=O)N[C@H](C(=O)N1C[C@H]2[C@@H]([C@H]1C(=O)NC(CC1CCC1)C(=O)C(N)=O)C2(Cl)Cl)C(C)(C)C)C(C)(C)C` (some centres unmarked) [compound 4375], the inhibition constant (Ki) was less than 75 nM.

For `CC(C)(C)OC(=O)C(CC(F)(F)F)NC(=O)N[C@H](C(=O)N1C[C@H]2[C@@H]([C@H]1C(=O)NC(CC1CCC1)C(=O)C(N)=O)C2(C)C)C(C)(C)C` (some centres unmarked) [compound 4376], the Ki is less than 75 nM.

Turning to `CC[C@H](NC(=O)N[C@H](C(=O)N1C[C@H]2[C@@H]([C@H]1C(=O)NC(CC1CC1)C(=O)C(N)=O)C2(C)C)C(C)(C)C)C(=O)OC(C)(C)C` (some centres unmarked) [compound 4377], the Ki was less than 75 nM.

Take `CC(C)OC(=O)[C@@H](NC(=O)N[C@H](C(=O)N1C[C@H]2[C@@H]([C@H]1C(=O)N[C@@H](CC1CC1)C(=O)C(=O)NCCC(=O)OC(C)(C)C)C2(C)C)C(C)(C)C)C(C)C` [compound 4378]: the Ki was less than 75 nM.

Consider `C#CCCC(NC(=O)[C@@H]1[C@@H]2[C@H](CN1C(=O)[C@@H](NC(=O)N[C@H](C(=O)OC(C)(C)C)C(C)(C)C)C(C)(C)C)C2(C)C)C(=O)C(=O)NCC=C` (some centres unmarked) [compound 4379], for which the Ki is less than 75 nM.

For the compound `C=CCNC(=O)C(=O)C(CCC)NC(=O)[C@@H]1[C@@H]2[C@H](CN1C(=O)[C@@H](NC(=O)N[C@H](C(=O)OCC1CC1)C(C)C)C(C)(C)C)C2(C)C` (some centres unmarked) [compound 4380], the Ki is less than 75 nM.

Turning to `C=CCNC(=O)C(=O)C(CCC)NC(=O)[C@@H]1[C@@H]2[C@H](CN1C(=O)[C@@H](NC(=O)N[C@H](C(=O)OC(C1CC1)C1CC1)C(C)(C)C)C(C)(C)C)C2(C)C` (some centres unmarked) [compound 4381], the inhibitory constant (Ki) was less than 75 nM.

For `CC(C)(C)[C@H](NC(=O)N[C@H](C(=O)OCC1CC1)C1(C(F)(F)F)CC1)C(=O)N1C[C@H]2[C@@H]([C@H]1C(=O)NC(CC1CCC1)C(=O)C(N)=O)C2(C)C` (some centres unmarked) [compound 4382], the inhibition constant Ki was less than 75 nM.

In the case of `CC(C)(C)[C@H](NC(=O)N[C@H](C(=O)N1C[C@H]2[C@@H]([C@H]1C(=O)NC(CC1CCC1)C(=O)C(N)=O)C2(C)C)C(C)(C)C)C(=O)OC1CCOC1` (some centres unmarked) [compound 4383], the inhibition constant Ki is less than 75 nM.

`CC(C)[C@H](NC(=O)N[C@H](C(=O)N1C[C@H]2[C@@H]([C@H]1C(=O)NC(CC1CCC1)C(=O)C(N)=O)C2(C)C)C(C)(C)C)C(=O)OC1CCCC1` (some centres unmarked) [compound 4384]: the Ki was less than 75 nM.

In the case of `C[C@H](OC(=O)[C@@H](NC(=O)N[C@H](C(=O)N1C[C@H]2[C@@H]([C@H]1C(=O)NC(CC1CCC1)C(=O)C(N)=O)C2(C)C)C(C)(C)C)C(C)(C)C)c1ccccc1` (some centres unmarked) [compound 4385], the inhibition constant Ki was less than 75 nM.

Regarding `CC(C)[C@H](NC(=O)N[C@H](C(=O)N1C[C@H]2[C@@H]([C@H]1C(=O)NC(CC1CCC1)C(=O)C(N)=O)C2(C)C)C(C)(C)C)C(=O)O[C@H](C)c1ccccc1` (some centres unmarked) [compound 4386], the Ki is less than 75 nM.

In the case of `CC(C)[C@H](NC(=O)N[C@H](C(=O)N1C[C@H]2[C@@H]([C@H]1C(=O)NC(CC1CC1)C(=O)C(N)=O)C2(C)C)C(C)(C)C)C(=O)OCC1(C)CC1` (some centres unmarked) [compound 4387], the Ki was less than 75 nM.

With `CC(C)(C)OC(=O)[C@@H](NC(=O)N[C@H](C(=O)N1C[C@H]2[C@@H]([C@H]1C(=O)NC(CC1CC1)C(=O)C(N)=O)C2(C)C)C(C)(C)C)C(C)(C)C` (some centres unmarked) [compound 4388], the Ki is less than 75 nM.

For `C=CCNC(=O)C(=O)C(CCC)NC(=O)[C@@H]1[C@@H]2[C@H](CN1C(=O)[C@@H](NC(=O)N[C@H](C(=O)OC(C)(C)C)C(C)C)C(C)(C)C)C2(C)C` (some centres unmarked) [compound 4389], the inhibitory constant (Ki) is less than 75 nM.

As to `CC(C)(C)[C@H](NC(=O)N[C@H](C(=O)N1C[C@H]2[C@@H]([C@H]1C(=O)NC(CC1CCC1)C(=O)C(N)=O)C2(Cl)Cl)C(C)(C)C)C(=O)OCc1ccccc1` (some centres unmarked) [compound 4390], the Ki was less than 75 nM.

On to `CC(C)(C)OC(=O)[C@@H](NC(=O)N[C@H](C(=O)N1C[C@H]2[C@@H]([C@H]1C(=O)NC(CC1CCC1)C(=O)C(N)=O)C2(Cl)Cl)C1Cc2ccccc2C1)C(C)(C)C` (some centres unmarked) [compound 4391], for which the inhibitory constant (Ki) is less than 75 nM.

For the compound `CC(C)[C@H](NC(=O)N[C@H](C(=O)N1C[C@H]2[C@@H]([C@H]1C(=O)NC(CC1CCC1)C(=O)C(N)=O)C2(Cl)Cl)C(C)(C)C)C(=O)OC1Cc2ccccc2C1` (some centres unmarked) [compound 4393], the Ki is less than 75 nM.

For `CC(C)(C)OC(=O)[C@@H](NC(=O)N[C@H](C(=O)N1C[C@H]2[C@@H]([C@H]1C(=O)NC(CC1CCC1)C(=O)C(N)=O)C2(Cl)Cl)C1CCCCC1)C(C)(C)C` (some centres unmarked) [compound 4394], the Ki is less than 75 nM.

For `CC(C)(C)C[C@H](NC(=O)N[C@H](C(=O)N1C[C@H]2[C@@H]([C@H]1C(=O)NC(CC1CC1)C(=O)C(N)=O)C2(C)C)C(C)(C)C)C(=O)OCc1ccccc1` (some centres unmarked) [compound 4395], the Ki was less than 75 nM.

In the case of `CC(C)[C@H](NC(=O)N[C@H](C(=O)N1C[C@H]2[C@@H]([C@H]1C(=O)NC(CC1CC1)C(=O)C(N)=O)C2(C)C)C(C)C)C(=O)OC(C)(C)C` (some centres unmarked) [compound 4396], the Ki is less than 75 nM.

Consider `C=CCNC(=O)C(=O)C(CCC)NC(=O)[C@@H]1[C@@H]2[C@H](CN1C(=O)[C@@H](NC(=O)N[C@H](C(=O)OCc1ccco1)C(C)C)C(C)(C)C)C2(C)C` (some centres unmarked) [compound 4397], for which the Ki was less than 75 nM.

As for `CCCC(NC(=O)[C@@H]1[C@@H]2[C@H](CN1C(=O)[C@@H](NC(=O)N[C@H](C(=O)OC(C)(C)C)C(C)(C)C)C(C)(C)C)C2(C)C)C(=O)C(N)=O` (some centres unmarked) [compound 4398], the inhibitory constant (Ki) is less than 75 nM.

Consider `C[C@H](OC(=O)[C@@H](NC(=O)N[C@H](C(=O)N1C[C@H]2[C@@H]([C@H]1C(=O)NC(CC1CCC1)C(=O)C(N)=O)C2(C)C)C1CCCCC1)C(C)(C)C)c1ccccc1` (some centres unmarked) [compound 4399], for which the Ki was less than 75 nM.

Turning to `C=CCNC(=O)C(=O)C(CCC)NC(=O)[C@@H]1[C@@H]2[C@H](CN1C(=O)[C@@H](NC(=O)N[C@H](C(=O)OCc1ccccc1)C1CCC1)C(C)(C)C)C2(C)C` (some centres unmarked) [compound 4400], the Ki is less than 75 nM.

As to `CC1(C)[C@@H]2[C@@H](C(=O)NC(CC3CC3)C(=O)C(N)=O)N(C(=O)[C@@H](NC(=O)N[C@H](C(=O)OCc3ccccc3)C3CCCCC3)C3CCCCC3)C[C@@H]21` (some centres unmarked) [compound 4401], the inhibition constant (Ki) was less than 75 nM.

In the case of `C=CCNC(=O)C(=O)C(CCCC)NC(=O)[C@@H]1[C@@H]2[C@H](CN1C(=O)[C@@H](NC(=O)N[C@H](C(=O)OC(C)C)C(C)(C)C)C1CCCCC1)C2(C)C` (some centres unmarked) [compound 4402], the inhibitory constant (Ki) was less than 75 nM.

As for `CC(C)[C@H](NC(=O)N[C@H](C(=O)N1C[C@H]2[C@@H]([C@H]1C(=O)NC(CCC(F)(F)F)C(=O)C(N)=O)C2(C)C)C(C)(C)C)C(=O)OCc1ccco1` (some centres unmarked) [compound 4403], the Ki was less than 75 nM.

On to `CC(C)(C)OC(=O)[C@@H](NC(=O)N[C@H](C(=O)N1C[C@H]2[C@@H]([C@H]1C(=O)NC(CCC(F)(F)F)C(=O)C(N)=O)C2(C)C)C(C)(C)C)C(C)(C)C` (some centres unmarked) [compound 4404], for which the inhibition constant Ki was less than 75 nM.

As for `CC(C)(C)[C@H](NC(=O)NC1(C(=O)OCc2ccco2)CCCCC1)C(=O)N1C[C@H]2[C@@H]([C@H]1C(=O)NC(CC1CC1)C(=O)C(N)=O)C2(C)C` (some centres unmarked) [compound 4405], the inhibition constant Ki was less than 75 nM.

As to `C=CCNC(=O)C(=O)C(CCCC)NC(=O)[C@@H]1[C@@H]2[C@H](CN1C(=O)[C@@H](NC(=O)N[C@H](C(=O)OC(C1CC1)C1CC1)C(C)C)C(C)(C)C)C2(C)C` (some centres unmarked) [compound 4406], the Ki is less than 75 nM.

For `C=CCNC(=O)C(=O)C(CCC)NC(=O)[C@@H]1[C@@H]2[C@H](CN1C(=O)[C@@H](NC(=O)N[C@H](C(=O)OC(C)(C)C1CC1)C(C)C)C(C)(C)C)C2(C)C` (some centres unmarked) [compound 4407], the inhibition constant Ki was less than 75 nM.

For `CC(C)(C)[C@H](NC(=O)N[C@H](C(=O)N1C[C@H]2[C@@H]([C@H]1C(=O)NC(CC1CC1)C(=O)C(N)=O)C2(C)C)C(C)(C)C)C(=O)OC1CCOC1` (some centres unmarked) [compound 4408], the Ki is less than 75 nM.

On to `COC(=O)C1(NC(=O)N[C@H](C(=O)N2C[C@H]3[C@@H]([C@H]2C(=O)NC(CC2CC2)C(=O)C(N)=O)C3(C)C)C(C)(C)C)CCCCC1` (some centres unmarked) [compound 4410], for which the Ki was less than 75 nM.

`CC[C@H](C)[C@H](NC(=O)N[C@H](C(=O)N1C[C@H]2[C@@H]([C@H]1C(=O)NC(CC1CC1)C(=O)C(N)=O)C2(C)C)C(C)(C)C)C(=O)OCc1ccccc1` (some centres unmarked) [compound 4411]: the Ki was less than 75 nM.

In the case of `CC(C)[C@H](NC(=O)N[C@H](C(=O)OC(C)(C)C)C(C)(C)C)C(=O)N1C[C@H]2[C@@H]([C@H]1C(=O)NC(CC1CC1)C(=O)C(N)=O)C2(C)C` (some centres unmarked) [compound 4412], the inhibitory constant (Ki) is less than 75 nM.

`CC(C)(C)OC(=O)C1(NC(=O)N[C@H](C(=O)N2C[C@H]3[C@@H]([C@H]2C(=O)NC(CC2CC2)C(=O)C(N)=O)C3(C)C)C2CCCCC2)CCCCC1` (some centres unmarked) [compound 4413]: the inhibitory constant (Ki) was less than 75 nM.

Regarding `CC[C@H](C)[C@H](NC(=O)N[C@H](C(=O)N1C[C@H]2[C@@H]([C@H]1C(=O)NC(CC1CC1)C(=O)C(N)=O)C2(C)C)C(C)(C)C)C(=O)OC(C)(C)C` (some centres unmarked) [compound 4414], the Ki is less than 75 nM.

As to `CCCCC(NC(=O)[C@@H]1[C@@H]2[C@H](CN1C(=O)[C@@H](NC(=O)N[C@H](C(=O)OC(C)(C)C)C(C)(C)C)C1CCCCC1)C2(C)C)C(=O)C(=O)NC` (some centres unmarked) [compound 4415], the inhibition constant (Ki) is less than 75 nM.

For `C=CCNC(=O)C(=O)C(CCCC)NC(=O)[C@@H]1[C@@H]2[C@H](CN1C(=O)[C@@H](NC(=O)N[C@H](C(=O)OC(C)(C)C)C(C)C)C(C)(C)C)C2(C)C` (some centres unmarked) [compound 4416], the inhibitory constant (Ki) is less than 75 nM.
